Reference: PubChem BioAssay AID485344 (National Center for Advancing Translational Sciences (NCATS), 2010)
Among all 340,000 compounds or so, about 6,900 (2%) were called active. Cut-off read from the data, not from the text of the source: active = inhibition above about 30%; inactive = below that, where a call was filed. This is a selection; strong and weak results do not stand in their true shares. Entries without a call were filed so in the source.
Note: 0% is about no effect.

What follows are molecules tested against D(2) dopamine receptor (Homo sapiens) (UniProt P14416) (assay: HTS Assay for Allosteric Antagonists of the Human D2 Dopamine Receptor: Primary Screen for Antagonists). Conditions: HEK293 TREx D2 cells, calcium flux, dopamine EC80; at 10 µM; stronger effect = higher value.
UniProt P14416, sequence (P14416 whole entry, looked up): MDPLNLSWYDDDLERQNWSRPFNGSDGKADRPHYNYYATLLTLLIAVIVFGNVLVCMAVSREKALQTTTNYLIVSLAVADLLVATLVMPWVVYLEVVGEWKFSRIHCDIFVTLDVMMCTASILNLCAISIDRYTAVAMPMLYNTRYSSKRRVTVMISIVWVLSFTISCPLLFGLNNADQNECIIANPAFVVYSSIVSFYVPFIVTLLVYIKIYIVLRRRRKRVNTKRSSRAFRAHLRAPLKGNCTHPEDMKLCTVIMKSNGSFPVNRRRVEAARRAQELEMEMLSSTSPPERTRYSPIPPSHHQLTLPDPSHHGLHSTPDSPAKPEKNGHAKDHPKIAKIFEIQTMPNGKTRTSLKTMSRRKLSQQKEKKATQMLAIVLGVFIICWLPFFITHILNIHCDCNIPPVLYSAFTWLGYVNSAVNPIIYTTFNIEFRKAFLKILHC
Summary of the method: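 Cells plated overnight at 30 C with tetracycline; no-wash calcium dye, 30–90 min RT; 10 s baseline; compound pinned; 180 s read; EC80 dopamine added; another 180 s read.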
For `CCN(CC)CCNC(=O)c1ccc2c(c1)NC(=O)C(CS(=O)(=O)Cc1cccc(Br)c1)N2` (stereo unspecified), the inhibition was -8.97%.
Work on `O=C(Cn1c(=O)c2ccccc2n(CC(=O)Nc2ccc(F)cc2F)c1=O)NCCc1ccccc1` yielded an inhibition of 20.4%.
Molecule `COc1ccc(NC(=O)CCSc2nc(-c3ccco3)cc(C(F)(F)F)n2)cc1` has an inhibition of -8.01%.
With `CCOC(=O)C(=CNCC(=O)OC)C(=O)OCC` the inhibition was active: 36.1%.
`Cc1ccc(C)c(Nc2ncnc3onc(C)c23)c1` showed an inhibition of -8.68%.
In the case of `COc1ccc(NC(=O)CSc2ncccc2C(=O)O)cc1OC`, the inhibition is reported as -6.36%.
With `Cc1nnc(N2CCCC(C(=O)NCc3ccccc3F)C2)c2nn(-c3ccc(Cl)cc3)c(C)c12` (stereo unspecified) the inhibition was -2.91%.
`COc1ccc(C(=O)NCc2nnc(SCC(=O)Nc3ccccc3)n2-c2ccccc2)cc1` showed an inhibition of 5.9%.
With `Cc1ccc2nc(SCC(=O)Nc3ccc(C)c(Cl)c3)nc(=O)n2c1` the inhibition was active: 34.7%.
`COc1cc(Cl)c(C)cc1NC(=O)c1ccc2c(SCC(=O)O)c3c(nc2c1)CCCC3` showed an inhibition of 9.89%.
With `Cc1ccc(-n2nnc(-c3nsc(NC(=O)c4cccc(Cl)c4)n3)c2C)cc1C` the inhibition was -2.11%.
In the case of `O=C(CSc1n[nH]c(-c2ccccc2)n1)NCCCc1ccccc1`, the inhibition is reported as -20.9%.
`COCCCNc1nc2cc(OC)c(OC)cc2c2nc(-c3ccccc3)nn12` gave an inhibition of 9.92%.
Work on `Cc1ccccc1N1CC(C(=O)Nc2ccc(Br)cc2)CC1=O` (stereo unspecified) yielded an inhibition of -21%.
Work on `CCn1c(=O)c(=O)n(CC)c2cc(N3CCCCC3)c(NC(=O)c3ccc(Cl)cc3)cc21` yielded an inhibition of -11.5%.
In the case of `COc1ccc(CNC(=O)CN2N=C(c3ccccc3)CCC2=O)c(OC)c1`, the inhibition is reported as -12.6%.
Work on `CC(=O)Nc1ccc(NC(=O)C2CCCN2S(=O)(=O)c2ccc3c(c2)CCCC(=O)N3)cc1` (stereo unspecified) yielded an inhibition of -0.511%.
`COc1ccc(OC)c(CCNC(=O)c2cc3c(=O)oc4ccc(C)cc4c3s2)c1` gave an inhibition of -1.4%.
With `CS(=O)(=O)N1N=C(c2cccs2)CC1c1ccccc1` (stereo unspecified) the inhibition was active: 31.8%.
Work on `O=C(Nc1ccc2nc(SCc3ccccc3)sc2c1)c1ccccc1F` yielded an inhibition of 1.46%.
Molecule `O=C(Nc1ccc(F)c(Cl)c1)c1cc(S(=O)(=O)N2CCc3ccccc3C2)ccc1F` has an inhibition of -20.1%.
With `Cc1ccc(OCC(=O)Nc2ccc3c(c2)nc(CCNC(=O)c2ccco2)n3C)cc1` the inhibition was -6.79%.
In the case of `O=C(Nc1ccc2oc(-c3cccnc3)nc2c1)c1ccc(-c2ccc(OC(F)(F)F)cc2)o1`, the inhibition is reported as 11.2%.
`COc1ccc(N2CCN(C(=O)CN3C(=O)CSc4c3c(C)nn4-c3ccccc3)CC2)cc1` showed an inhibition of 1.2%.
Molecule `CC(C)CCNC(=O)c1ccc2c(c1)N(Cc1cccc(Cl)c1)C(=O)c1ccccc1S2` has an inhibition of 25.3%.
`CCCC(=O)n1nc(-c2ccco2)nc1NCc1ccccc1Cl` showed an inhibition of 13.1%.
In the case of `Cc1cc2nn(-c3ccc(F)cc3)nc2cc1NC(=O)c1cccc2ccccc12`, the inhibition is reported as -1.36%.
With `Cc1[nH]c2ccccc2c1/C=N/Nc1ccc(F)cc1F` the inhibition was active: 31.4%.
Work on `O=C(Nc1nnc(S(=O)(=O)N2CCOCC2)s1)c1ccccc1Cl` yielded an inhibition of -4.17%.
In the case of `CN(C)CCCN(C(=O)c1ccc2c(c1)OCCO2)c1nc2ccccc2s1`, the inhibition is reported as 19.6%.
With `COc1cccc(CNC(=O)CSc2c3c(nc4cc(Cl)ccc24)CCCC3)c1` the inhibition was 0.598%.
`CCOc1ccccc1NC(=O)Cn1cc(C(=O)c2ccc(Cl)cc2)c(=O)c2ccc(C)nc21` gave an inhibition of -10.1%.
`COc1ccc(Cn2c(=O)c3oc4ccccc4c3n(Cc3cccc(C)c3)c2=O)cc1` gave an inhibition of -0.672%.
For `COc1ccccc1CNc1ccc(-c2nc(-c3ccco3)no2)cc1[N+](=O)[O-]`, the inhibition was 8.1%.
Work on `Cc1cccc2c(=O)cc(CSc3ccccc3NC(=O)c3cccc(F)c3)[nH]c12` yielded an inhibition of -9.45%.
With `CCOc1ccc(C(=O)c2c(N)c(-c3nc(-c4ccc5c(c4)OCO5)cs3)c3ccccn23)cc1` the inhibition was -1.56%.
In the case of `COC(=O)Cn1c(=O)c2cccn2c2cccnc21`, the inhibition is reported as 4.56%.
`Cc1ccsc1CN(C(=O)c1oc2cc(Br)ccc2c1C)C1CCS(=O)(=O)C1` (stereo unspecified) gave an inhibition of 4.76%.
`O=C(Nc1nc2c(s1)CN(Cc1ccccc1)CC2)C1CCC1` was tested, and the inhibition was active: 51.4%.
`Cc1cc(C(=O)Nc2ccc(C(C)C)cc2)c2c(C)nn(-c3ccccc3)c2n1` showed an inhibition of 12.3%.
With `CCOC(=O)c1c(-c2ccccc2)csc1NC(=O)c1cc(-c2ccc(F)cc2)on1` the inhibition was -18%.
`CC(C)n1cnc(S(=O)(=O)N2CCCC(C(=O)NCc3ccccc3Cl)C2)c1` (stereo unspecified) showed an inhibition of 7.46%.
In the case of `CC(C)NC(=O)C1CCC(Cn2c(=O)c3sccc3n(CC(=O)NCc3ccccc3)c2=O)CC1` (stereo unspecified), the inhibition is reported as -5.39%.
`CCCOc1c(Cl)cc(C(=O)N(Cc2cccc(OC)c2)C2CCS(=O)(=O)C2)cc1Cl` (stereo unspecified) gave an inhibition of -15.7%.
`CCOc1ccc(NC(=O)c2cnc(N3CCCCC3)c3ccccc23)cc1` gave an inhibition of -9.01%.
Molecule `CC1CCc2nc3ncn(Cc4ccccc4F)c(=O)c3cc2C1` (stereo unspecified) has an inhibition of 10%.
`O=C(Nc1ccc(OCc2cc(=O)n3c4c(sc3n2)CCCC4)cc1)c1ccccc1` showed an inhibition of -4.19%.
Work on `CCOc1ccc(OCC)c(NS(=O)(=O)c2c(C(=O)N3CCC(C)CC3)c(C)n(C)c2C)c1` yielded an inhibition of 2.11%.
`CCOc1ccc(NC(=O)CN(c2ccc(Cl)cc2C)S(=O)(=O)c2ccccc2)cc1` gave an inhibition of -13.3%.
Molecule `COc1ccc(N2CC(NC(=O)c3ccc4c(c3)OCO4)CC2=O)cc1` (stereo unspecified) has an inhibition of 20.9%.
`Cc1ccc(-n2c(SCC(=O)O)nc3sc4c(c3c2=O)CCCC4)cc1` showed an inhibition of -3.16%.
Molecule `Cn1cc(C(=O)N2CCN(c3cccc(C(F)(F)F)c3)CC2)c2c3ccccc3n(C)c2c1=O` has an inhibition of 9.01%.
In the case of `CC(=O)Nc1ccc(NC(=O)Cn2nc(C(=O)Nc3ccc(C)cc3)ccc2=O)cc1`, the inhibition is reported as -19.7%.
`CCCOc1ccc(Oc2nc(NCC(C)C)nc(N3CCOCC3)n2)nn1` gave an inhibition of -10.5%.
For `COc1ccccc1N1CCN(c2nc(-c3ccc(C)cc3)nc3ccccc23)CC1`, the inhibition was -7.69%.
Molecule `COc1cccc(NC(=O)C2CCCN(S(=O)(=O)c3ccc4[nH]c(=O)ccc4c3)C2)c1` (stereo unspecified) has an inhibition of -6.32%.
`COc1cc(NC(=O)COCc2cc(-c3ccc(F)cc3)on2)cc(OC)c1OC` gave an inhibition of 6.33%.
With `Cc1ccc(C(=O)Nc2cc3c(cc2N2CCCC2)n(C)c(=O)c(=O)n3C)cc1` the inhibition was -12.2%.
Work on `Cc1nn(C(C)(C)C)c(OC(=O)C(C)(C)C)c1Sc1ccccc1` yielded an inhibition of 0.56%.
With `COc1cccc(-n2c(SCC(=O)c3ccc(Cl)cc3)nc3c([nH]c4ccccc43)c2=O)c1` the inhibition was -0.969%.
`CSc1ccc(CNC(=O)c2ccc(NC(=O)c3nsc4ccccc34)cc2)cc1` was tested, and the inhibition was 9.48%.
`O=C(NCc1ccccc1Cl)NCc1noc2ccccc12` gave an inhibition of -4%.
In the case of `Cc1ccccc1NC(=O)Cn1c(=O)n(CC2CCC(C(=O)NCCc3ccccc3)CC2)c(=O)c2ccccc21` (stereo unspecified), the inhibition is reported as 0.728%.
Molecule `Nc1c(C(=O)Nc2ccccc2)nnn1Cc1ccc(F)cc1Cl` has an inhibition of 10.5%.
Molecule `Cc1ccc(CNS(=O)(=O)c2ccc(-c3cc(C(F)(F)F)on3)s2)cc1` has an inhibition of 4.5%.
Molecule `CCOc1ccccc1C(=O)Nc1nc2c(s1)CC(C)CC2` (stereo unspecified) has an inhibition of -12.3%.
With `COc1ccc(Cl)cc1NC(=O)Cn1c(=O)n(CCC(=O)NCc2ccc3c(c2)OCO3)c(=O)c2ccccc21` the inhibition was -2.36%.
`O=C(NCc1ccccc1Cl)C1CCCN(c2ncnc3onc(-c4ccc(F)cc4)c23)C1` (stereo unspecified) gave an inhibition of 23.1%.
In the case of `CCOc1ccccc1N1CCN(CC(O)COC2CCCc3ccccc32)CC1` (stereo unspecified), the inhibition is reported as active: 77.9%.
For `O=[N+]([O-])c1ccc(OCC(O)CN2CCN(c3ccccc3F)CC2)cc1` (stereo unspecified), the inhibition was active: 90.6%.
With `Cc1ccc(S(=O)(=O)NCCSc2nnnn2-c2ccc(Cl)c(C(=O)O)c2)cc1` the inhibition was 9.28%.
Molecule `CC(=O)Nc1ccc(C2Nc3c(C)cc(C)cc3-c3cc(C)nn32)cc1` (stereo unspecified) has an inhibition of -7.41%.
For `CCOC(=O)c1ccc(NC(=O)C(Cc2ccccc2)NS(=O)(=O)c2ccc(Br)s2)cc1` (stereo unspecified), the inhibition was 6.44%.
For `Cc1cc(NNC(=O)c2ccccc2)nc(NNC(=O)c2ccccc2)n1`, the inhibition was active: 34%.
In the case of `CCOC(=O)c1c(C)oc2nc(C)nc(NCc3ccccc3OCC)c12`, the inhibition is reported as -6.21%.
`Cc1cc(C)cc(Nc2sc(C(=O)c3ccccc3)c(N)c2S(=O)(=O)c2ccccc2)c1` gave an inhibition of -19%.
`CCCc1cc(=O)n2[nH]c(NCc3ccccc3OC)nc2n1` gave an inhibition of 7.19%.
`Cn1c(C(=O)O)c(CC(=O)NCC2COc3ccccc3O2)c2ccccc21` (stereo unspecified) was tested, and the inhibition was active: 41.9%.
With `Cc1ccc(S(=O)(=O)N2CCC(c3ccncc3)CC2)c(C)c1` the inhibition was 7.67%.
With `COc1cc(/C=C/C(=O)c2ccc3c(c2)OCO3)cc(Cl)c1O` the inhibition was active: 34.8%.
`O=C(COc1ccccc1-c1nc(-c2ccccc2)no1)Nc1ccccc1[N+](=O)[O-]` was tested, and the inhibition was -7.85%.
In the case of `CCN(CC)c1ccc(/C=C/c2cc(-c3ccccc3)c3ccccc3n2)cc1`, the inhibition is reported as active: 43.3%.
`CCOC(=O)C1=C(CS(=O)(=O)c2ccc(F)cc2)NC(=O)NC1c1ccc(OCC)c(OC)c1` (stereo unspecified) was tested, and the inhibition was -8.55%.
`CCc1nn(CC(=O)NC(C)c2ccccc2)c(=O)c2cc3sccc3n12` (stereo unspecified) gave an inhibition of 9.27%.
With `CCOc1ccc(NC(=O)Cn2nnc(C(=O)Nc3ccc(OCC)cc3)c2N)cc1` the inhibition was 17.6%.
`CC(C)CCNC(=O)[C@@H](c1ccccc1)N1Cc2ccccc2C1=O` was tested, and the inhibition was 22.8%.
Work on `Cc1cc(C)cc(OCC(=O)NCC2(N(C)C)CCCCC2)c1` yielded an inhibition of 12.4%.
Work on `COc1cccc(NC(=O)C2CCN(C(=O)N3CC(C)Oc4ccccc43)CC2)c1` (stereo unspecified) yielded an inhibition of 24.8%.
Work on `O=C(NCCSc1c(-c2ccc(F)cc2)[nH]c2ccccc12)c1ccc(S(=O)(=O)N2CCOCC2)cc1` yielded an inhibition of -11.4%.
Work on `Cc1ccc(CNC(=O)CN2C(=O)C3CCCCN3c3ccc(C(=O)N4CCCC4)cc32)cc1` (stereo unspecified) yielded an inhibition of 18.5%.
In the case of `O=C(NCc1ccccc1Cl)c1ccc2c(O)c(S(=O)(=O)c3ccccc3)c(=O)[nH]c2c1`, the inhibition is reported as 8.02%.
Work on `COc1ccc(Cl)cc1C(=O)Nc1ccc(-c2nnc3n2CCCCC3)cc1` yielded an inhibition of 0.163%.
For `CC(=O)c1ccc(NC(=O)CCc2c(C)nc3cc(-c4ccc(Cl)cc4)nn3c2C)cc1`, the inhibition was 3.44%.
With `COc1cccc(-n2c(SCc3ccccc3C)nc3c([nH]c4ccccc43)c2=O)c1` the inhibition was -1.03%.
With `Cc1ccc(C)c(NC(=O)CN(CCc2ccccc2)S(=O)(=O)c2ccccc2)c1` the inhibition was 1.03%.
`Cc1cccc(Cc2c(C)nc3nc(SCc4ccccc4C)nn3c2C)c1` showed an inhibition of 12.6%.
